The supplement of paper PMC6206098
± gives the uncertainty stated by the source. The sequences are guide strands of siRNAs; only the seed at positions 2 to 7 varies.

Key:
H460 = assay: cell viability relative to lipid-only control; higher = less toxic; conditions: concentration: 10 nM; 96 h; Homo sapiens
HeyA8 = assay: as above; conditions: concentration: 10 nM; 96 h; Homo sapiens
M565 = assay: as above; conditions: concentration: 10 nM; 96 h; Mus musculus
3LL = assay: cell viability relative to siNT1 control; HeyA8 human ovarian and H460 human lung cancer; M565 mouse liver and 3LL mouse lung cancer; siNT1 is a non-toxic control siRNA; higher = less toxic; conditions: concentration: 10 nM; 96 h; Mus musculus
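For cell viability relative to lipid-only control in this document: reverse lipid transfection in 384-well plates, in triplicate, of duplexes on a non-toxic 19mer backbone with passenger strand 2′-O-methylated at positions 1 and 2, luminescence viability read-out.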
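For cell viability relative to siNT1 control in this document: Luminescence-based viability of cells reverse transfected in 384-well plates with lipid-complexed siRNAs built on a non-toxic 19mer backbone whose passenger strand carries 2′-O-methyl groups at positions 1 and 2, triplicates.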

Sequence | cell viability (H460) [%] | cell viability (HeyA8) [%] | cell viability (M565) [%] | cell viability (3LL) [%]
UACUGGCACAUGUAAACCAAA | 16.5 ± 0.71 | 21.8 ± 1.9 | 7.59 ± 1.9 | 8.11 ± 0.84
UAAGGGUACAUGUAAACCAAA | 66.5 ± 0.79 | 39.1 ± 3.4 | 19.7 ± 4.3 | 76.4 ± 9.5
UAUGUGGACAUGUAAACCAAA | 60.6 ± 11 | 49.4 ± 2.6 | 91.9 ± 12 | 89.9 ± 15
UAAAUCGACAUGUAAACCAAA | 71.7 ± 6.3 | 103 ± 10 | 91.1 ± 6.7 | 117 ± 11
UCUGUCCACAUGUAAACCAAA | 34.7 ± 4.6 | 57.1 ± 4.8 | 5.48 ± 1.1 | 74.5 ± 6
UCGCGACACAUGUAAACCAAA | 69.1 ± 16 | 19.4 ± 3 | 51.4 ± 5.7 | 74.4 ± 14
UGUUGGCACAUGUAAACCAAA | 36.4 ± 5.1 | 40.4 ± 7 | 21.7 ± 7.1 | 27.7 ± 2.3
UACUAAUACAUGUAAACCAAA | 76 ± 12 | 74.6 ± 3 | 86.8 ± 18 | 94.3 ± 11
UAUUGAUACAUGUAAACCAAA | 64.3 ± 4.4 | 86.9 ± 8.8 | 85.3 ± 16 | 103 ± 20
UACAAUCACAUGUAAACCAAA | 74.7 ± 4.9 | 12.3 ± 1.5 | 83.2 ± 4.3 | 88.6 ± 6.7
UACAAAGACAUGUAAACCAAA | 94.3 ± 7.7 | 80.4 ± 1.8 | 74.9 ± 11 | 84.3 ± 7.2
UUUGGAUACAUGUAAACCAAA | 73.4 ± 4.8 | 98.1 ± 2.2 | 103 ± 13 | 82.9 ± 5
UCAUAAAACAUGUAAACCAAA | 33.9 ± 1.6 | 90 ± 6 | 65.9 ± 9.1 | 91.4 ± 12
UCAGGCCACAUGUAAACCAAA | 15.8 ± 1.6 | 8.14 ± 0.1 | 3.41 ± 0.43 | 10.2 ± 4.4
UUGAUGGACAUGUAAACCAAA | 65.4 ± 13 | 65.5 ± 2.9 | 31.2 ± 6.5 | 23.2 ± 0.94
UAGUCGGACAUGUAAACCAAA | 70.4 ± 11 | 71.7 ± 2.4 | 41.9 ± 1.2 | 39.7 ± 7.9
UAUAUACACAUGUAAACCAAA | 66.8 ± 1.4 | 99 ± 18 | 90.4 ± 11 | 73.8 ± 21
UACACGUACAUGUAAACCAAA | 81.1 ± 12 | 64.3 ± 4.8 | 34.6 ± 8.4 | 70.8 ± 12
UGUACAUACAUGUAAACCAAA | 69.1 ± 20 | 76.6 ± 10 | 90.6 ± 24 | 81.31 ± 0.23
UUUGCAUACAUGUAAACCAAA | 82.1 ± 11 | 93.7 ± 1.9 | 104 ± 7.6 | 94.3 ± 1.3

Sequence | cell viability (H460) [%] | cell viability (HeyA8) [%] | cell viability (M565) [%] | cell viability (3LL) [%]
UUCUUUGACAUGUAAACCAAA | 87.9 ± 6.1 | 91.4 ± 5 | 83.4 ± 6.7 | 91.3 ± 9
UUAAUAUACAUGUAAACCAAA | 59 ± 6.7 | 65.8 ± 3.1 | 66.1 ± 8.6 | 80 ± 14
UGCUAACACAUGUAAACCAAA | 4.04 ± 0.14 | 2.66 ± 0.15 | 10.9 ± 2.3 | 1.75 ± 0.22
UGUAGAUACAUGUAAACCAAA | 83.2 ± 8.3 | 28 ± 7.6 | 17.1 ± 3.6 | 46.3 ± 21
UCAUGCCACAUGUAAACCAAA | 18.2 ± 1.7 | 9.31 ± 1.2 | 7.91 ± 2.8 | 12.4 ± 1.8
UUUACCGACAUGUAAACCAAA | 97.7 ± 4.2 | 93.2 ± 4.3 | 96.5 ± 5.7 | 98.3 ± 14
UAUACGUACAUGUAAACCAAA | 94 ± 23 | 98.4 ± 3.7 | 97.8 ± 14 | 104.9 ± 1
UGCGGACACAUGUAAACCAAA | 22.4 ± 0.49 | 18.1 ± 1.3 | 13.2 ± 2.9 | 28.9 ± 5
UGCUAAGACAUGUAAACCAAA | 72.6 ± 16 | 76.2 ± 5.9 | 83.7 ± 6.7 | 87.1 ± 15
UUCUAAUACAUGUAAACCAAA | 79.9 ± 11 | 95.5 ± 7.4 | 81 ± 16 | 99.4 ± 8.2
UCCAUUAACAUGUAAACCAAA | 70 ± 2 | 89.2 ± 2.6 | 81.1 ± 8.9 | 93.8 ± 26
UACCCAUACAUGUAAACCAAA | 61.9 ± 9.6 | 33.8 ± 6.5 | 37.6 ± 8.4 | 70.4 ± 8.1
UUGUGACACAUGUAAACCAAA | 23.4 ± 1.9 | 28.9 ± 3.7 | 87.7 ± 7.2 | 9.43 ± 1.4
UGGCACUACAUGUAAACCAAA | 21.6 ± 1.9 | 23.4 ± 1.2 | 14.5 ± 2.7 | 13.5 ± 1.2
UUACGACACAUGUAAACCAAA | 56.5 ± 7.6 | 69.8 ± 1.8 | 85.9 ± 13 | 87.6 ± 8.6
UCCGGCUACAUGUAAACCAAA | 43.2 ± 6.3 | 20.8 ± 2.8 | 51.4 ± 12 | 63.2 ± 14
UGAGGUGACAUGUAAACCAAA | 56.4 ± 5 | 63 ± 5.5 | 5.94 ± 0.58 | 90.4 ± 18
UCUCCGAACAUGUAAACCAAA | 47.9 ± 4.8 | 88.7 ± 7.4 | 67.3 ± 14 | 97.4 ± 19
UAUACGAACAUGUAAACCAAA | 75.1 ± 15 | 99.9 ± 2.7 | 106 ± 5.6 | 115 ± 8.2
UUCUCCAACAUGUAAACCAAA | 56 ± 12 | 87.9 ± 14 | 88.8 ± 6.7 | 78.9 ± 2.9

Sequence | cell viability (H460) [%] | cell viability (HeyA8) [%] | cell viability (M565) [%] | cell viability (3LL) [%]
UCUCGGCACAUGUAAACCAAA | 25.6 ± 3.6 | 25.3 ± 0.61 | 23.5 ± 4 | 83.7 ± 11
UAAACUUACAUGUAAACCAAA | 80.3 ± 16 | 108 ± 6.7 | 91.4 ± 16 | 121 ± 13
UCGAAUCACAUGUAAACCAAA | 71.5 ± 5.3 | 44 ± 3.9 | 69.3 ± 7.2 | 91.3 ± 25
UUUAACUACAUGUAAACCAAA | 73.3 ± 4.1 | 83.4 ± 8.8 | 75.3 ± 1.5 | 80.8 ± 4.9
UGAGCUUACAUGUAAACCAAA | 57.9 ± 14 | 69.6 ± 6.4 | 13.4 ± 3.4 | 28.5 ± 4.5
UUAUAUUACAUGUAAACCAAA | 55.5 ± 8.3 | 77.4 ± 5.8 | 74.7 ± 12 | 75 ± 8.8
UACCCACACAUGUAAACCAAA | 39.7 ± 3.2 | 53.1 ± 6 | 27 ± 4.8 | 53.6 ± 5.6
UUUCGGGACAUGUAAACCAAA | 65.5 ± 6.2 | 91 ± 2.2 | 61.8 ± 6 | 89.4 ± 4.7
UAACAUCACAUGUAAACCAAA | 35.8 ± 7 | 5.87 ± 0.41 | 64.2 ± 9.1 | 32.1 ± 9.7
UCCCCGGACAUGUAAACCAAA | 65.5 ± 7.6 | 60.6 ± 2.8 | 78.5 ± 20 | 106 ± 7.4
UCAGAUAACAUGUAAACCAAA | 67.3 ± 1.4 | 90.3 ± 6.1 | 66.8 ± 5.4 | 95.9 ± 17
UGCCGGCACAUGUAAACCAAA | 29.4 ± 3.2 | 6.33 ± 0.3 | 16.3 ± 1.4 | 27.6 ± 0.57
UUCGACCACAUGUAAACCAAA | 54.6 ± 7 | 55.4 ± 1.8 | 40.4 ± 4.9 | 65.1 ± 13
UCGCCAUACAUGUAAACCAAA | 92.2 ± 5.4 | 82.97 ± 0.31 | 55.9 ± 4.7 | 89.4 ± 27
UGACCCCACAUGUAAACCAAA | 24.9 ± 0.54 | 30.8 ± 6.1 | 8.1 ± 1.1 | 6.47 ± 1.8
UCCGCCGACAUGUAAACCAAA | 76.8 ± 11 | 82.8 ± 5.2 | 65.9 ± 9.7 | 101 ± 13
UCUUAUGACAUGUAAACCAAA | 55.7 ± 2 | 84.4 ± 8.1 | 78 ± 8.7 | 91.6 ± 14
UGGACCGACAUGUAAACCAAA | 68.8 ± 9.4 | 79.7 ± 2.8 | 10.8 ± 1.9 | 33.2 ± 3.6
UAAGAUUACAUGUAAACCAAA | 71.8 ± 8.4 | 78.2 ± 19 | 63.5 ± 6.5 | 91.6 ± 15
UGGAGUUACAUGUAAACCAAA | 51.2 ± 8.9 | 36 ± 10 | 33.7 ± 2.9 | 77.3 ± 3.2
